# Measurements: the supplement of paper PMC7335073
# The full ranking holds about 4,100 sequences; the median of “relative CpG methylation activity (normalised to average over all NNNCGNNN flanks)” is about 0.94, and the highest 2% start at about 1.9. This is one part of the list.
# Biological target: DNMT3B catalytic domain (mouse) (UniProt O88509)
# Test: relative CpG methylation activity (normalised to average over all NNNCGNNN flanks) (relative (1 = mean)); higher = more methylation of the central CpG
# Settings: system: in vitro, murine catalytic domain; CpG state: hemimethylated substrate pool; residues: 558-859
# Method: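 Deep enzymology: a pool of dsDNA substrates with a central CpG flanked by 10 random nucleotides on each side was methylated by the murine DNMT3A or DNMT3B catalytic domain (0.8 mM SAM, 37 °C, 60 min). Methylation was then read out by hairpin ligation, bisulfite conversion and NGS. Values are the average methylation of each NNNCGNNN context (±3 flanks; the outer flanks are random and averaged over), normalised to the overall mean, so 1 = average activity.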
# Sequence of UniProt O88509 (O88509 558-859): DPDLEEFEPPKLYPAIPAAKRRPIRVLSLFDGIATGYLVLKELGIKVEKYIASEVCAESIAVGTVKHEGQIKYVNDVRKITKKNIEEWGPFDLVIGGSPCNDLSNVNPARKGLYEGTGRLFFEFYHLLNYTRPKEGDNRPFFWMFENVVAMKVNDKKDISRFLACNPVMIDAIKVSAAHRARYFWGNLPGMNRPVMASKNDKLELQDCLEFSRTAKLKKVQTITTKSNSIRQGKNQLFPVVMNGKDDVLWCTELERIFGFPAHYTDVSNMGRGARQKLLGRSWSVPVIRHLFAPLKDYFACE
row,Sequence,relative CpG methylation activity
1,GGTCGACG,0.963
2,GCTCGCAT,0.481
3,AGGCGTTA,0.417
4,CTGCGCGG,0.801
5,AACCGGTT,0.799
6,AACCGGGT,0.787
7,GCTCGAAT,1.27
8,GCTCGTGC,0.493
9,CCCCGCTG,0.869
10,TTACGTAC,1.95
11,CCCCGGCA,1.72
12,AGCCGTCT,0.256
13,CTCCGATG,1.67
14,AGCCGACC,0.654
15,ATGCGATG,1.1
16,AACCGGTC,1.09
17,TTACGTTC,1.66
18,CGTCGCCT,0.833
19,CGCCGCAC,0.521
20,GTACGGGC,1.63
21,TTGCGTAG,1.18
22,GAGCGTCT,1.03

row,Sequence,relative CpG methylation activity
1,AATCGTTG,0.243
2,CTACGGCC,1.96
3,GTACGATT,1.75
4,TGTCGGAC,0.833
5,CCCCGCCT,1.13
6,ACCCGAAC,1.57
7,TTACGGAC,1.85
8,CCACGGGA,1.42
9,ATACGTAA,1.1
10,TTCCGGCT,1.61
11,TTTCGTTG,0.558
12,TGACGCAG,0.63
13,GGACGTCA,0.756
14,GAGCGGAG,0.444
15,GGCCGCTC,0.521
16,CCGCGTCC,0.769
17,CGGCGAAG,0.694
18,CGTCGCTG,0.604
19,AGACGGCT,1.81
20,CTCCGTCT,1.02
21,GCTCGCCC,0.844
22,GCTCGTAG,0.266

row,Sequence,relative CpG methylation activity
1,TGCCGAAG,0.75
2,GGCCGGGA,0.745
3,CAGCGGGG,0.909
4,GGTCGTGT,0.0468
5,TGACGTGC,0.66
6,AAGCGTGG,0.419
7,GTACGAGT,1.48
8,TTACGAAG,1.79
9,CAACGAGA,1.94
10,CCGCGGTA,0.965
11,CAACGAGG,1.5
12,GTCCGAGC,1.63
13,GTTCGCAT,0.484
14,AGCCGGTA,0.5
15,TTGCGTAA,0.853
16,CCTCGCGC,0.983
17,CACCGACA,1.05
18,AGACGCGA,0.772
19,ACACGCCG,1.24
20,GAGCGCAG,0.296
21,TCCCGCTA,0.854
22,TTACGGGT,1.83

row,Sequence,relative CpG methylation activity
1,AAACGATA,1.81
2,TTACGCCG,1.59
3,TTACGATC,2.01
4,CCACGAAC,1.64
5,TGCCGGTC,0.758
6,GCGCGTGG,0.526
7,GTACGATA,1.73
8,GCGCGTGC,0.619
9,TGTCGCGT,0.412
10,ATTCGTCA,0.607
11,ACTCGCAC,0.58
12,CCTCGGTT,1.13
13,ATCCGGGG,1.39
14,TGGCGACA,0.571
15,AACCGGGA,0.901
16,TTCCGATA,1.68
17,CCACGGAT,0.839
18,CGGCGATC,0.966
19,GTTCGTAA,0.406
20,AAACGCGT,1.19
